Measured values published in patent publication US10167259B2, “Allosteric inhibitors of proteasome and methods of use thereof” (THE BOARD OF REGENTS OF THE UNIVERSITY OF TEXAS SYSTEM, priority 2013, dated 2019).

Test system: core proteasome activated by Rpt2 and Rpt5 tail peptides
Test: Blocking activation of core proteasome chymotrypsin-like activity by Rpt2 and Rpt5 tail peptides
Format: biochemical
Settings: FIG. 1F
Description: The grooves are utilized by Rpt2, Rpt3 and Rpt5 subunits that anchor the regulatory particle to the core particle (Lander, et al., 2009). The anchoring C-terminal tails of Rpt2 and Rpt5 subunits are responsible for core particle gate opening and activation (Lander, et al., 2009). Activation of the core by both Rpt2 and Rpt5 tails is affected by B1 (FIG. 2C). The groove accommodating the C-terminal tail of Rpt2 subunit may be a primary docking place for B1, or B1 may allosterically affect binding of Rpt2 C-terminal tail with an exceptionally high efficiency (FIG. 2D). In vitro reconstruction of the 26S proteasome assembly from the core particle (20S) and regulatory particle (19S) components is attenuated by the treatment with B1 (FIG. 2E).

COc1cc(CCCCCOC(=O)C2CCCCN2C(=O)C(=O)C2CCCCC2)cc(OC)c1OC (stereo not shown) [B5]
Prevention of activation of the core proteasome by Rpt5 tail peptide, compared with B1: at least as efficient as the B1 compound
